Results as given in US11925724B2, “Compounds with dual activity” (priority 2015, dated 2024).

Tests used:
[1] = Peptide layer thickness on Ti by AFM; assay type: physicochemical; details: Ti surfaces coated with peptide
Experimental: For further characterization of the coating topography and thickness, Atomic Force Microscopy (AFM) analysis of Ti surfaces coated with the different peptides was performed. […] Surfaces were prepared in the same manner as was mentioned before. AFM images were taken in AC mode with Si tip with spring constant 3 N/m in JPK instrument (NanoWizard 3).

[2] = Contact angle of peptide-coated titanium surfaces; details: titanium substrate dipped in 1 mg/ml peptide solution (Tris buffer); titanium in buffer 33°
Experimental: To coat the Ti substrate with a peptide, a bare titanium substrate was dipped in 1 mg\ml peptide solution (Tris buffer). The change of the surface contact angle due to the assembly of the peptide on the substrate was measured.
1 cm×1 cm titanium surfaces were sonicated for 5 minutes in ethanol, washed with TDW and dried under nitrogen. The clean surfaces were dipped in a peptide solution (1 mg/mL in TRIS buffer at pH=8.5, 10 mM concentration and ionic strength of 154 mM with NaCl) and left for incubation overnight at room temperature. Then, the modified substrate were rinsed three times with 1 ml TDW and dried under nitrogen.
Contact angle measurements were carried out using a Theta Lite optical tensiometer (Attension, Finland).

| Molecule | layer thickness (AFM) [1] | contact angle of coated surface [2] |
| --- | --- | --- |
| N=C(N)NCCCC(NC(=O)C(Cc1ccc(F)cc1)NC(=O)C(Cc1ccc(F)cc1)NC(=O)C(N)Cc1ccc(O)c(O)c1)C(=O)NCC(=O)NC(CC(=O)O)C(N)=O (stereo not drawn) [Peptide 1, DOPA-Phe(4F)-Phe(4F)-Arg-Gly-Asp] (H-[Dopa][Phe(4-F)][Phe(4-F)]RGD-NH2; configuration not given here) | around 65 nm | 54 ° |
| N=C(N)NCCCC(NC(=O)C(Cc1ccc(O)c(O)c1)NC(=O)C(Cc1ccc(F)cc1)NC(=O)C(N)Cc1ccc(F)cc1)C(=O)NCC(=O)NC(CC(=O)O)C(N)=O (centres unmarked) [Peptide 2] (H-[Phe(4-F)][Phe(4-F)][Dopa]RGD-NH2; configuration not given here) | – | 49 ° |
| N=C(N)NCCCC(NC(=O)C(Cc1ccc(F)cc1)NC(=O)C(CC(=O)O)NC(=O)C(N)Cc1ccc(O)c(O)c1)C(=O)NC(Cc1ccc(F)cc1)C(=O)NCC(N)=O (centres unmarked) [Peptide 3] (H-[Dopa]D[Phe(4-F)]R[Phe(4-F)]G-NH2; configuration not given here) | – | 55 ° |
| Peptide 4: control peptide with the same amino acids in mixed sequence, without the cell adhesion and the anti-fouling elements ([Dopa][Phe(4-F)]DG[Phe(4-F)]R; not fully specified (C-terminus)) | – | 65 ° |

Square brackets hold non-standard residues; d marks the D form. Ends that are not written are not given here. Peptide text beside a SMILES is read from it. Phe(4-F) = N[CH](Cc1ccc(F)cc1)C(=O)O; Dopa = N[CH](Cc1ccc(O)c(O)c1)C(=O)O
